The results in this text go back to PubChem BioAssay AID1963576 (National Center for Advancing Translational Sciences (NCATS), 2024).

Out of some 46,000 compounds screened, about 60 (0.1%) were called active. Another 3% or so got no clear call; they are omitted. The call rests on the fitted dose curve; in most records, active means well fitted inhibition curve with a large enough effect; inconclusive means small, poorly fitted or top-dose-only effect; inactive means no such curve, though single readings can be large or run the other way. Some of the results follow.

The assay can be described thus: Primary qHTS assay for Inhibitors of ovarian cancer metastasis using an organotypic tumor microenvironment (TME) model. Further: nearly all actives have a fitted effect of over 65% in size.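 On activity change, negative = inhibition: plate controls were DMSO wells for no effect and tomatine positive control wells for full effect.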 The conditions noted are these: SKOV3ip1-GFP adhesion/invasion on 3D omental model, fluorescence; series mostly up to 45.8 µM; activity change, negative = inhibition: at the top concentration. An outline of the steps: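 A 3D layer of primary human omental fibroblasts, mesothelial cells, fibronectin and collagen I, grown 48 hr, received SKOV3ip1-GFP cells in serum-free medium plus compounds at 0.36-46 umol/L. After 2 hr RT and 16 hr 37 C, fixed adherent GFP cells were counted; normalized to DMSO and tomatine.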
(In general: In qHTS, concentration-response curves come from the screen itself.)
For the compound `CCOC(=O)COc1ccc(C)cc1C(=O)c1ccn2nc(-c3ccc(C)cc3)cc2n1`, the “activity change, negative = inhibition” value is inactive: 2.14%. For the compound `COc1ccc(OC)c(NC(=O)CN(C)S(=O)(=O)c2ccc3[nH]c4c(c3c2)CCCC4)c1`, the result was inactive.

As for `CCOc1ccc(NC(=O)c2c(NC(=O)Cc3ccccc3)sc3c2CCC(C)C3)cc1` (configuration not stated), the “activity change, negative = inhibition” value is inactive: -13.4%. As for `COc1cccc(NC(=O)CSc2nc3ccccc3n2C)c1`, the “activity change, negative = inhibition” value was inactive: 11.3%. On the same count and under the same terms, under `CCC(=O)N1CCc2cc(S(=O)(=O)CCC(=O)N3CCN(c4cc(C)ccc4C)CC3)ccc21` stands inactive: 4.29%; under `CCOc1ccc(NC(=O)c2c(NCc3ccc(C)o3)sc3c2CCC(C)C3)cc1` (configuration not stated), inactive: -3.73%; under `Cc1nnc(N2CCC(C(=O)NC3CCCCC3)CC2)c2nn(-c3ccc(Cl)cc3)c(C)c12`, inactive: 2.84%. Still for that read-out and setting: the value for `CCn1c(=O)cc(SCC(=O)NCCc2cc(OC)ccc2OC)c2ccccc21` was inactive: 1.23%.

With `COc1ccc(OC)c(CCNC(=O)c2c(C)nn(-c3ccc(F)cc3)c2-n2cccc2)c1`, the call was inactive. As for `COc1ccc(Cn2nnc(C(=O)Nc3cc(OC)ccc3OC)c2N)cc1`, the compound was classed as inactive. In the case of `Cc1ccc(NC(=O)Cn2c(=O)n(Cc3ccco3)c(=O)c3ccc(C(=O)NC4CCCC4)cc32)c(C)c1`, the “activity change, negative = inhibition” value is inactive: -12.1%. Still for that read-out and setting: under `COCCCNC(=O)C1CCN(Cc2nc(-c3ccc(OC)c(OC)c3)oc2C)CC1` stands inactive: 2.55%.

As for `COc1cc(OC)cc(C(=O)Nc2cc(-c3nc4cc(Cl)ccc4o3)ccc2Cl)c1`, the “activity change, negative = inhibition” value is inactive: -17.9%. Same read-out and setting: the value for `CCOC(=O)C1CCCN(CC(=O)N2CCCc3c2c(=O)oc2ccc(OCc4ccccc4)cc32)C1` (configuration not stated) was inactive: 2.19%; that for `COc1ccc2c(Sc3ccccc3)c(C(=O)NCCc3ccc(Cl)cc3)[nH]c2c1` was inactive: -1.86%. With `O=C(CSc1ncc2c(n1)-c1ccc(Cl)cc1N(Cc1ccccc1)S2(=O)=O)Nc1ccc(F)c(F)c1`, the outcome was inactive. On to `O=C(CN1C(=O)COc2ccc(S(=O)(=O)N3CCCC3)cc21)N1CCN(c2ccccc2)CC1`, for which the “activity change, negative = inhibition” value was inactive: 5.75%. Turning to `CCOc1ccc(C2C(C(N)=O)=C(C)Nc3nc(SCc4ccccc4)nn32)cc1` (configuration not stated), the call was inactive. Consider `COc1ccc(CNC(=O)Nc2ccc3c(c2)N(C)C(=O)c2ccccc2S3)cc1`, for which the compound was classed as inactive. As to `CCc1ccc(NC(=O)c2sc3ncnc(N(C)C4CCCCC4)c3c2C)cc1`, the “activity change, negative = inhibition” value is inactive: 2.39%. The same measure, in the same setting: under `O=C(NCc1ccc2c(c1)CCN2C(=O)c1ccccc1)c1cc2ccccc2[nH]1` stands inactive: -1.28%; under `O=C(c1cccs1)c1cn(CCOc2ccccc2F)c2ccccc12`, inactive: -4.54%. On the same count and under the same terms, the value for `COc1cccc(CN2C(=O)c3ccccc3Sc3ccc(C(=O)N(C)Cc4ccccc4)cc32)c1` was inactive: 0.707%; that for `COc1ccc(-c2nnc(SCc3cc(=O)c4cc(C)cc(C)c4[nH]3)n2C)cc1` was inactive: -0.519%.

On to `CCCCNC(=O)CSc1nc2ccccc2nc1Cc1ccc(C)cc1`, for which the outcome was inactive. Consider `COc1ccccc1NC(=O)c1cc2ccc3cccnc3c2[nH]1`, for which the “activity change, negative = inhibition” value was inactive: 0.168%.

Consider `CCOC(=O)c1ccccc1NC(=O)c1c2c(nc3ccccc13)C(=O)N(C1CCCCC1)C2`, for which the “activity change, negative = inhibition” value is inactive: 2.85%. Take `CC(C)CN(C[C@@H](O)[C@H](Cc1ccccc1)NC(=O)O[C@H]1CO[C@H]2OCC[C@H]21)S(=O)(=O)c1ccc(N)cc1`: the “activity change, negative = inhibition” value is inactive: -8.68%. With `CC(=O)c1cccc(NC(=O)c2nc3ccccc3n(C)c2=O)c1`, the “activity change, negative = inhibition” value is inactive: -8.18%. Same read-out and setting: the value for `COc1cccc(CNC(=O)c2ccc3nc(-c4ccc(F)cc4)c(-c4ccc(F)cc4)nc3c2)c1` was inactive: 1.43%; that for `COc1cc(C2c3c(-c4ccccc4O)n[nH]c3C(=O)N2CCO)ccc1OCc1ccccc1` (configuration not stated) was inactive: 18.9%. Same read-out and setting: under `CC(C)c1ccc(S(=O)(=O)c2nnn3c2nc(N2CCN(C)CC2)c2sccc23)cc1` stands inactive: -2.13%. Turning to `CC(=O)c1cccc(NC(=O)CN2C=NS(=O)(=O)c3ccc(C)cc32)c1`, the call was inactive. Regarding `CCCc1cc(=O)n2[nH]c(NC(=O)c3ccc(C(C)(C)C)cc3)nc2n1`, the “activity change, negative = inhibition” value was inactive: 1.44%. On the same count and under the same terms, under `COc1cc(NC(=O)C2CCN(c3cnc4ccccc4n3)CC2)cc(OC)c1OC` stands inactive: -2.75%.

As for `Cc1cccc(CNS(=O)(=O)c2ccc(-c3cnc(C4CC4)o3)cc2)c1`, the outcome was inactive. With `CC1=C(C(=O)Nc2cccnc2)C(c2cccc(Br)c2)n2nc(SCc3ccccc3)nc2N1` (configuration not stated), the “activity change, negative = inhibition” value was inactive: 18.7%. Still for that read-out and setting: under `CCOc1ccc(CNC(=O)C2CCN(S(=O)(=O)N3CCC(C)CC3)CC2)cc1OC` stands inactive: 8.69%. Same read-out and setting: under `Cc1ccc(CNC(=O)COCc2cc(-c3cccs3)on2)cc1` stands inactive: 11.8%; under `COc1ccc(C(=O)Nc2nc3nc(C)c(Cc4ccccc4)c(=O)n3[nH]2)cc1OC`, inactive: -2.7%; under `Cn1ccc2cc(S(=O)(=O)N3CCCC(C(=O)NCc4ccccc4)C3)ccc21` (configuration not stated), inactive: -4.61%. For `CCn1c(=O)c2cc(C(=O)Nc3cc(OC)c(OC)c(OC)c3)sc2c2ccccc21`, the outcome was inactive.

Regarding `Cc1cccc(-c2noc(-c3ccccc3NC(=O)C3CC(=O)N(c4ccccc4C)C3)n2)c1` (configuration not stated), the “activity change, negative = inhibition” value is inactive: -6.42%. Same read-out and setting: the value for `COc1ccc(S(=O)(=O)Nc2cccc(-c3ccc(N4CCC(C)CC4)nn3)c2)cc1OC` was inactive: -10.6%. For the compound `CC1=C(C(=O)Nc2ccccc2C)C(c2ccncc2)n2nc(SCc3ccccc3Cl)nc2N1` (configuration not stated), the result was inactive. Consider `COc1ccc(NC(=O)CCSc2nc(-c3ccc(OC)cc3)cc(C(F)(F)F)n2)cc1`, for which the “activity change, negative = inhibition” value is inactive: 6.71%. With `O=C(NCCS(=O)(=O)N1CCN(c2ccccc2)CC1)C1CC(=O)N(c2ccc(F)cc2)C1` (configuration not stated), the “activity change, negative = inhibition” value was inactive: -26.9%.
